The list shows a part of the results. The full chains were built here from the parent and the listed change. Inactive controls read about 0.05.
B1: TEV protease; numbered along this chain (parent)
chain: MGESLFKGPRDYNPISSSICHLTNESDGHTTSLYGIGFGPFIITNKHLFRRNNGTLVVQSLHGVFKVKDTTTLQQHLVDGRDMIIIRMPKDFPPFPQKLKFREPQREERICLVTTNFQTKSMSSMVSDTSCTFPSGDGIFWKHWIQTKDGQCGSPLVSTRDGFIVGIHSASNFTNTNNYFTSVPKNFMELLTNQEAQQWVSGWRLNADSVLWGGHKVFMVKPEEPFQPVKEATQL

Variants of: B1
Assay: raw area under fraction-flipped curve 0-4 h after induction (AUC4h, not background-subtracted), DNA-recorder readout of cleavage of the substrate (dimensionless); higher = more cleavage of the substrate by the protease variant
Conditions: temperature: 34 °C; time window: 0-4 h after rhamnose induction
Protocol: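 In vivo DNA recorder in E. coli TOP10(DE3) ΔrhaA at 34 °C. Each TEVp single-site mutant (parent TEVp 0) is paired with a single-site variant of the 7-mer TEVs (canonical ENLYFQ|S). The substrate sits between flexible linkers in a Bxb1-sfGFP-TEVs-SsrA fusion, so cleavage stabilises Bxb1 and speeds flipping of a recombination array, read by NGS. The value is the raw area under the fraction-flipped curve over 0-4 h after rhamnose induction (AUC4h), with ≥20 reads per time point. It is not background-subtracted; inactive controls average about 0.047.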
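Further: Bxb1 expression induced with 0.2% (w/v) L-rhamnose at OD600 near 0.5, cultures sampled hourly, flipped fraction per protease–substrate barcode pair counted by paired-end Illumina sequencing.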

| Variant | area with substrate ENLYAQS | area with substrate ENLYCQS | area with substrate ENLYDQS | area with substrate ENLYEQS | area with substrate ENLYGQS | area with substrate ENLYHQS | area with substrate ENLYIQS | area with substrate ENLYKQS | area with substrate ENLYLQS | area with substrate ENLYMQS | area with substrate ENLYNQS | area with substrate ENLYQQS | area with substrate ENLYSQS | area with substrate ENLYTQS | area with substrate ENLYVQS | area with substrate ENLYWQS | area with substrate ENLYYQS | area with substrate ENLYPQS | area with substrate ENLYRQS |
| --- | --- | --- | --- | --- | --- | --- | --- | --- | --- | --- | --- | --- | --- | --- | --- | --- | --- | --- | --- |
| Q146M | 0.0468 | 0.135 | 0.0603 | 0.076 | 0.09 | 0.0924 | 0.145 | 0.0805 | 0.104 | 0.148 | 0.0692 | 0.0569 | 0.0924 | 0.124 | 0.179 | 0.0906 | 0.122 |  |  |
| K148R | 0.0874 |  |  | 0.0807 | 0.0642 |  | 0.126 | 0.0527 | 0.0936 | 0.0852 | 0.0669 |  |  |  | 0.108 | 0.101 |  | 0.0748 |  |
| K148Q |  | 0.0869 | 0.0736 |  |  | 0.0655 |  | 0.0587 |  | 0.0909 | 0.0795 | 0.0639 | 0.0677 | 0.0853 |  | 0.0766 | 0.0653 | 0.0894 | 0.0598 |
| N13L | 0.066 |  | 0.0663 | 0.0429 | 0.0614 | 0.0688 | 0.142 | 0.0753 | 0.0934 | 0.0841 | 0.066 | 0.0586 | 0.0871 | 0.0559 | 0.124 | 0.0743 |  | 0.0859 | 0.056 |
| T31A |  | 0.115 | 0.0656 | 0.0687 | 0.061 | 0.0673 | 0.101 | 0.0541 | 0.0652 | 0.0852 | 0.0542 | 0.0689 | 0.085 |  |  | 0.0851 | 0.0596 | 0.0757 | 0.0595 |
| I164D | 0.0637 | 0.0521 | 0.0493 | 0.058 | 0.0522 | 0.057 |  | 0.0538 | 0.0476 |  | 0.0546 | 0.0472 | 0.0528 | 0.0531 |  | 0.0457 | 0.0613 | 0.0686 | 0.0676 |
| L191F | 0.0485 | 0.0679 | 0.0561 | 0.0674 | 0.0595 | 0.0621 | 0.113 | 0.0633 |  | 0.0864 | 0.0904 |  | 0.059 | 0.0642 | 0.118 | 0.0666 |  | 0.0598 | 0.0585 |
| P155D | 0.047 |  | 0.0613 | 0.0484 | 0.0488 | 0.0562 | 0.0402 | 0.0448 | 0.0617 | 0.0444 | 0.0536 | 0.0621 | 0.0542 | 0.0557 |  | 0.0455 | 0.0762 | 0.0535 | 0.0358 |
| T147Q | 0.0554 |  | 0.0665 | 0.0475 |  | 0.0722 | 0.0415 | 0.0606 |  |  | 0.0616 | 0.0623 | 0.0802 |  | 0.061 | 0.0585 |  | 0.059 |  |
| N52P |  | 0.0547 |  | 0.0465 | 0.0611 |  | 0.0779 | 0.0545 |  | 0.0627 | 0.0667 | 0.0638 |  |  | 0.077 |  |  | 0.0726 | 0.0794 |
| S127G | 0.0798 | 0.0922 | 0.0648 | 0.0604 | 0.0714 | 0.0748 | 0.14 | 0.0649 |  | 0.0789 | 0.0792 | 0.0659 |  |  | 0.126 | 0.0954 |  | 0.0732 | 0.0707 |
| C20Q |  | 0.0583 | 0.0384 | 0.0395 | 0.0584 |  |  |  |  | 0.054 | 0.049 | 0.0533 |  |  | 0.0428 | 0.0482 |  | 0.0632 |  |
| H47C |  | 0.0677 | 0.0774 | 0.0555 | 0.06 |  |  | 0.0455 |  | 0.0585 | 0.0668 |  | 0.0757 | 0.025 | 0.0593 | 0.0549 | 0.066 | 0.0525 | 0.059 |
